Values joined by “and” are separate entries in the source; they are usually repeats but may differ in a detail not shown here. Identical values can stand only once. Screen size: about 48,000 compounds; about 1,200 (2.5%) were called active. Not shown: some 2% with an inconclusive outcome.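 How the source made its calls: active means activation of at least 60% and not above a set upper limit (about 1 call in 100 departs from these limits); inconclusive means activation of 40% to 60%, or above that upper limit; inactive means activation under 40%.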 This is one part of the list.
target: Probable G-protein coupled receptor 32 (Homo sapiens) (UniProt O75388); test: qHTS for Agonists of Human Resolvin D1 Receptor DRV1; settings: CHO-K1 GPR32 beta-arrestin PathHunter luminescence, 90 min; at 76.9 µM; active compounds read high; zero percent set by DMSO-only wells; further: 0% is about no effect
In short: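 Engineered CHO-K1 line co-expressing GPR32-ProLink and EA-beta-arrestin. Compound treatment lasted 90 min at 37 °C. Luminescence was recorded after 1 h with substrate at ambient temperature, relative to DMSO basal wells.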

Chain of UniProt O75388 (O75388 whole entry, looked up): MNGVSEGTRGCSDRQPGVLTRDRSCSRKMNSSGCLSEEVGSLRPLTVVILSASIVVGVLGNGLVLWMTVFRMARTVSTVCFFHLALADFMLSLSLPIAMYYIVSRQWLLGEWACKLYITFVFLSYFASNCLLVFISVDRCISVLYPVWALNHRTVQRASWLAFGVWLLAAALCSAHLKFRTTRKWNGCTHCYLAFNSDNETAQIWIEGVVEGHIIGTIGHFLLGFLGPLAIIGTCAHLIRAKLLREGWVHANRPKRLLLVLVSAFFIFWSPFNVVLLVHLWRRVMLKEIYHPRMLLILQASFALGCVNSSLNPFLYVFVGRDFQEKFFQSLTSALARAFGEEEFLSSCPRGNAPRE

Compound	activation
COC(=O)c1sc(-c2ccccc2)cc1NC(=O)Nc1ccc(Cl)cc1	inactive: -8.02%
CCCCN(Cc1cc2ccccc2[nH]c1=O)C(=O)c1cccc(Cl)c1	inactive: -1.1%
COc1ccc2c(c1)CCc1sc(NC(=O)c3ccc(Br)cc3)nc1-2	inactive: -23.3%
CC(C)(C)c1ccc(Oc2nc3ccccn3c(=O)c2/C=C(\C#N)c2nc3ccccc3s2)cc1	inactive: 47%
CCc1ccc(NC(=O)CC2C(=O)N(c3ccc(C)cc3)C(=O)N2C2CCCC2)cc1 (stereo not drawn)	inactive: -3.37%
Cc1cc(C)cc(NC(=O)CSc2nc(=O)[nH]c3c2CCC3)c1	inactive: -9.68%
COc1cc(NC(=O)Cn2ccn(-c3cc(C)cc(C)c3)c(=O)c2=O)cc(OC)c1	inactive: -0.641%
CC(C)CN(CCNC(=O)c1cn(C)c2ccc(S(=O)(=O)N3CCCCCC3)cc2c1=O)CC(C)C	inactive: -28.4%
CN(C)c1oc(-c2ccc(COc3ccccc3)o2)nc1C#N	inactive: 0.546%
COc1ccc(N2CCN(S(=O)(=O)CCNC(=O)c3cc(=O)c4ccccc4o3)CC2)cc1	inactive: -14.2%
Cc1ccc(NC(=O)C(=O)NCC(c2ccc3c(c2)OCO3)N2CCN(C)CC2)c(C)c1 (stereo not drawn)	inactive: 8.89%
Cc1cc(C)cc(NC(=O)CSc2nc3ncccc3[nH]2)c1	inactive: 9.05%
Cc1ccc(NC(=O)C(Cc2ccccc2)NS(=O)(=O)c2ccc3c(c2)CCC(=O)N3)cc1 (stereo not drawn)	inactive: -3.49%
CS(=O)(=O)c1cccc(-c2nnc(NC(=O)c3ccc4c(c3)OCCO4)o2)c1	inactive: 6.63%
CCOC(=O)N1CCC(NC(=O)c2cnn(-c3ccc(C)cc3C)c2C2CCN(C(=O)OC(C)(C)C)CC2)CC1	inactive: -7.23%
CC(=O)Nc1cccc(Nc2nc3ccccc3n3c(C)nnc23)c1	inactive: -9.48%
O=C(CN1CCCN(Cc2ccc(F)cc2)S1(=O)=O)Nc1ccc2c(c1)OCCO2	inactive: -5.11%
CCOc1ccccc1N(C)C(=O)Cn1nc(Cc2ccncc2)c2ccccc2c1=O	inactive: -9.3%
CC(=O)c1nn(-c2ccc(OC(F)(F)F)cc2)nc1Nc1ccccc1	inactive: -0.944%
CCc1nn(CCCC(=O)NCc2ccc(C)cc2)c(=O)c2cc3occc3n12	inactive: 11%
CCCN(CCC)CCCNC(=O)Cn1ncc2c3ccccc3n(Cc3ccccc3F)c2c1=O	inactive: -1.14%
COC(=O)c1sccc1S(=O)(=O)N1CCN(c2ccc(C)cc2C)CC1	inactive: 2.93%
CCOc1ccc(CNC(=O)C2CCN(C(=O)N3CC(CC)Oc4ccccc43)CC2)cc1 (stereo not drawn)	inactive: -15.2%
Cc1c(Cl)cccc1NC(=O)N1CCOc2ccccc21	inactive: -30.1%
CC(C)(C)c1ccc(C(=O)NC2(C(F)(F)F)NC(=O)N(CCc3ccccc3)C2=O)cc1 (stereo not drawn)	inactive: 48.1%
COc1cccc(NC(=O)CSc2ncc3c(n2)-c2ccc(Cl)cc2N(C)S3(=O)=O)c1	inactive: 4.11%
CCCNC(=O)c1ccccc1NC(=O)c1nsc2ccccc12	inactive: -0.473%

Compound	activation
Cc1ccc(OCC(=O)Nc2ccc3nc(SCC(=O)Nc4ccc(C)cc4C)sc3c2)cc1	inactive: -9.73%
Cc1ccc(NC(=O)NCCOCCn2c(=O)oc3ccccc32)cc1C	inactive: 4.99%
CCOc1ccc(CNC(=O)c2ccccc2NC(=O)c2nsc3ccccc23)cc1	inactive: -10.6%
CCOc1ccccc1NC(=O)C(=O)NCCc1sc2nc(-c3ccc(OC)cc3)nn2c1C	inactive: -18%
Cc1ccc(Cn2c(=O)n(-c3ccc(C)cc3)c(=O)c3c2c2cc(C)ccc2n3C)cc1	inactive: -5.7%
CCOc1ccccc1NS(=O)(=O)c1ccc2[nH]c3c(c2c1)CCCCC3	inactive: 12.4%
COc1ccc(S(=O)(=O)N(CC(=O)Nc2cc(C)ccc2OC)Cc2ccccc2)cc1	inactive: -4.78%
COC(=O)c1ccc(NC(=O)CN2CCN(S(=O)(=O)c3ccc(Br)cc3)CC2)cc1	inactive: -16.4%
Cc1c(-c2ccc(Cl)cc2)c(=O)oc2c(CN3CCN(CCO)CC3)c(O)ccc12	inactive: -15.4%
CCOc1ccc(CCNC(=O)c2cc3c(=O)n(C)c4ccccc4c3n2C)cc1OCC	inactive: -4.27%
C[C@@H]1CC(=O)NN=C1c1ccc(NN=C(C#N)C#N)cc1	inactive: -90.4% and inactive: -99.6%
CCCN(CCC)CCCNC(=O)C1CCN(c2nc3ccc(CC)cc3s2)CC1	inactive: -8.03%
O=C(CSc1cn(CC(=O)N2CCCCC2)c2ccccc12)NCc1ccc(F)cc1	inactive: -14.7%
CSc1cccc(NC(=O)C2CCCN(C(=O)c3cnn(-c4ccc(F)cc4)c3-n3cccc3)C2)c1 (stereo not drawn)	inactive: -9.71%
N#C/C(=C\c1cccc(F)c1)c1nc(-c2cc3c(ccc4ccccc43)oc2=O)cs1	inactive: 13.6%
CCOc1cc(C2c3c(oc4cc(C)cc(C)c4c3=O)C(=O)N2CCO)ccc1O (stereo not drawn)	inactive: -12.5%
Cc1ccc(NC(=O)Nc2ccc3nc(N4CCN(C)CC4)cc(C)c3c2)cc1F	active: 93.6%
Cc1ccc(-c2nc(SCC(=O)NCC3CCCO3)c3c(=O)n(C)c(=O)n(C)c3n2)cc1 (stereo not drawn)	inactive: 7.8%
Cc1cc(OCCn2c(CCNC(=O)C3CCCCC3)nc3ccccc32)ccc1Cl	inactive: -17.5%
Cc1ccccc1N1CCN(S(=O)(=O)c2ccccc2)CC1	inactive: -8.58%
Oc1c(C(c2ccccc2F)N2CCN(c3ccccc3F)CC2)sc2nc(-c3ccco3)nn12 (stereo not drawn)	inactive: 4.07%
CCOC(=O)CSC1=Nc2ccccc2C2=NC(CCC(=O)NCc3ccc(OC)cc3)C(=O)N12 (stereo not drawn)	inactive: -16.2%
COc1ccccc1Cn1ccn(Cc2ccc(C)cc2)c(=O)c1=O	inactive: -10.6%
COc1ccc(CNC(=O)CCC2N=C3c4ccccc4N=C(SCc4ccccc4F)N3C2=O)cc1 (stereo not drawn)	inactive: 8.53%
Cc1cc(C)c(NC(=O)CSc2nccn2-c2cccc(Cl)c2)c(C)c1	inactive: -20.5%
CCCc1cc(N2CCN(c3cccc(C)c3C)CC2)n2cnnc2n1	inactive: 26.6%
